Experimental data published in the supplement of paper PMC8728848.
The list shows a part of the results.

Experiments:
Assay in all cases: glycan array binding signal (z-score within array); higher = stronger binding
Conditions in all cases: glycan notation: IUPAC condensed, linker removed
[1] = molecular target: Fuc(a1-3)[Gal(b1-4)]GlcNAc(b1-3)[Fuc(a1-2)]Gal(b1-4)Glc
Outline: (§1)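 Negative Z-scores can be read as non-binding. The Z-score is calculated within each array and then averaged across arrays of one protein sequence at different concentrations or buffers and across linkers. Arrays, 3228 in all, were curated from the Consortium for Functional Glycomics database and kept only where the protein sequence was available.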

[2] = molecular target: Fuc(a1-3)[Gal(b1-4)]GlcNAc(b1-3)[Fuc(a1-3)[Gal(b1-4)]GlcNAc(b1-6)]Gal(b1-4)Glc
Outline: as §1

[3] = molecular target: Fuc(a1-3)[Gal3S(b1-4)]Glc
Outline: as §1

[4] = molecular target: Fuc(a1-3)[Gal3S(b1-4)]GlcNAc
Outline: as §1

[5] = molecular target: Fuc(a1-3)[Gal3S(b1-4)]GlcNAc(b1-3)Gal(b1-4)Glc
Outline: as §1

[6] = molecular target: Fuc(a1-3)[Gal3S(b1-4)]GlcNAc6S(b1-3)Gal(b1-4)Glc
Outline: as §1

[7] = molecular target: Fuc(a1-3)[Gal6S(b1-4)]GlcNAc(b1-3)Gal(b1-4)Glc
Outline: as §1

Fuc(a1-6)GlcNAc = molecular target: Fuc(a1-6)GlcNAc
Outline: as §1

[8] = molecular target: Gal(a1-3)Gal(b1-4)Gal(a1-3)Gal
Outline: as §1

Gal(a1-4)Gal(b1-4)GlcNAc = molecular target: Gal(a1-4)Gal(b1-4)GlcNAc
Outline: as §1

Gal(a1-4)Glc = molecular target: Gal(a1-4)Glc
Outline: as §1

Gal(b1-3)GalNAc = molecular target: Gal(b1-3)GalNAc
Outline: as §1

[9] = molecular target: Gal(b1-3)GalNAc(b1-4)Gal(b1-4)Glc
Outline: as §1

[10] = molecular target: Gal(b1-3)GalNAc(b1-4)Gal3S(b1-4)Glc
Outline: as §1

[11] = molecular target: Gal(b1-3)GalNAc(b1-4)[Neu5Ac(a2-3)]Gal(b1-4)Glc
Outline: as §1

[12] = molecular target: Gal(b1-3)GalNAc(b1-4)[Neu5Gc(a2-3)]Gal(b1-4)Glc
Outline: as §1

Gal(b1-3)GlcNAc = molecular target: Gal(b1-3)GlcNAc
Outline: as §1

[13] = molecular target: Gal(b1-3)GlcNAc(b1-3)Gal(b1-4)Glc
Outline: as §1

[14] = molecular target: Gal(b1-3)GlcNAc(b1-3)Gal(b1-4)GlcNAc(b1-3)Gal(b1-4)Glc
Outline: as §1

[15] = molecular target: Gal(b1-3)GlcNAc(b1-3)Gal(b1-4)GlcNAc(b1-6)[Gal(b1-3)GlcNAc(b1-3)]Gal(b1-4)Glc
Outline: as §1

[16] = molecular target: Gal(b1-3)GlcNAc(b1-3)Gal(b1-4)[Fuc(a1-3)]GlcNAc(b1-3)Gal(b1-4)Glc
Outline: as §1

[17] = molecular target: Gal(b1-3)GlcNAc(b1-3)Gal(b1-4)[Fuc(a1-3)]GlcNAc(b1-6)[Gal(b1-3)GlcNAc(b1-3)]Gal(b1-4)Glc
Outline: as §1

[18] = molecular target: Gal(b1-3)GlcNAc(b1-3)[Fuc(a1-3)[Gal(b1-4)]GlcNAc(b1-6)]Gal(b1-4)Glc
Outline: as §1

[19] = molecular target: Gal(b1-3)GlcNAc(b1-3)[Fuc(a1-3)[Gal(b1-4)]GlcNAc(b1-6)]Gal(b1-4)]GlcNAc(b1-6)[Gal(b1-4)]GlcNAc(b1-3)]Gal(b1-4)Glc
Outline: as §1

[20] = molecular target: Gal(b1-3)GlcNAc(b1-3)[Gal(b1-4)GlcNAc(b1-6)]Gal(b1-4)Glc
Outline: as §1

[21] = molecular target: Gal(b1-3)GlcNAc(b1-3)[Gal(b1-4)GlcNAc(b1-6)]Gal(b1-4)GlcNAc(b1-6)[Gal(b1-3)GlcNAc(b1-3)]Gal(b1-4)Glc
Outline: as §1

[22] = molecular target: Gal(b1-3)[Fuc(a1-4)]GlcNAc
Outline: as §1

[23] = molecular target: Gal(b1-3)[Fuc(a1-4)]GlcNAc(b1-3)Gal(b1-4)Glc
Outline: as §1

[24] = molecular target: Gal(b1-3)[Fuc(a1-4)]GlcNAc(b1-3)Gal(b1-4)[Fuc(a1-3)]Glc
Outline: as §1

[25] = molecular target: Gal(b1-3)[Fuc(a1-4)]GlcNAc(b1-3)Gal(b1-4)[Fuc(a1-3)]GlcNAc(b1-3)Gal(b1-4)Glc
Outline: as §1

[26] = molecular target: Gal(b1-3)[Fuc(a1-4)]GlcNAc(b1-3)Gal(b1-4)[Fuc(a1-3)]GlcNAc(b1-6)[Gal(b1-3)[Fuc(a1-4)]GlcNAc(b1-3)]Gal(b1-4)Glc
Outline: as §1

[27] = molecular target: Gal(b1-3)[Fuc(a1-4)]GlcNAc(b1-3)[Fuc(a1-3)[Gal(b1-4)]GlcNAc(b1-6)]Gal(b1-4)Glc
Outline: as §1

[28] = molecular target: Gal(b1-3)[Neu5Ac(a2-6)]GlcNAc(b1-3)Gal(b1-4)Glc
Outline: as §1

Gal(b1-4)Glc = molecular target: Gal(b1-4)Glc
Outline: as §1

Gal(b1-4)GlcNAc = molecular target: Gal(b1-4)GlcNAc
Outline: as §1

[29] = molecular target: Gal(b1-4)GlcNAc(b1-2)Man(a1-3)[Gal(b1-4)GlcNAc(b1-2)Man(a1-6)]Man(b1-4)GlcNAc(b1-4)GlcNAc
Outline: as §1

[30] = molecular target: Gal(b1-4)GlcNAc(b1-2)Man(a1-3)[Gal(b1-4)GlcNAc(b1-2)Man(a1-6)]Man(b1-4)GlcNAc(b1-4)[Fuc(a1-6)]GlcNAc
Outline: as §1

[31] = molecular target: Gal(b1-4)GlcNAc(b1-2)Man(a1-3)[Gal(b1-4)GlcNAc(b1-2)Man(a1-6)][GlcNAc(b1-4)]Man(b1-4)GlcNAc(b1-4)[Fuc(a1-6)]GlcNAc
Outline: as §1

[32] = molecular target: Gal(b1-4)GlcNAc(b1-2)Man(a1-3)[Man(a1-6)]Man(b1-4)GlcNAc(b1-4)GlcNAc
Outline: as §1

[33] = molecular target: Gal(b1-4)GlcNAc(b1-2)Man(a1-6)[GlcNAc(b1-2)Man(a1-3)]Man(b1-4)GlcNAc(b1-4)[Fuc(a1-6)]GlcNAc
Outline: as §1

[34] = molecular target: Gal(b1-4)GlcNAc(b1-2)Man(a1-6)[Man(a1-3)]Man(b1-4)GlcNAc(b1-4)GlcNAc
Outline: as §1

[35] = molecular target: Gal(b1-4)GlcNAc(b1-2)Man(a1-6)[Man(a1-3)]Man(b1-4)GlcNAc(b1-4)[Fuc(a1-6)]GlcNAc
Outline: as §1

[36] = molecular target: Gal(b1-4)GlcNAc(b1-2)[Gal(b1-4)GlcNAc(b1-4)]Man(a1-3)[Fuc(a1-3)[Gal(b1-4)]GlcNAc(b1-2)Man(a1-6)]Man(b1-4)GlcNAc(b1-4)GlcNAc
Outline: as §1

[37] = molecular target: Gal(b1-4)GlcNAc(b1-2)[Gal(b1-4)GlcNAc(b1-4)]Man(a1-3)[Gal(b1-4)GlcNAc(b1-2)Man(a1-6)]Man(b1-4)GlcNAc(b1-4)GlcNAc
Outline: as §1

[38] = molecular target: Gal(b1-4)GlcNAc(b1-2)[Gal(b1-4)GlcNAc(b1-4)]Man(a1-3)[Gal(b1-4)GlcNAc(b1-2)[Gal(b1-4)GlcNAc(b1-6)]Man(a1-6)]Man(b1-4)GlcNAc(b1-4)GlcNAc
Outline: as §1

B1: Malectin (Xenopus laevis), Q6INX3 (protein)
chain: SGLADKVIWAVNAGGESHVDVHGIHYRKDPLEGRVGRASDYGMKLPILRSNPEDQVLYQTERYNEDSFGYDIPIKEEGEYVLVLKFAEVYFAQSQQKVFDVRVNGHTVVKDLDIFDRVGHSTAHDEIIPISIKKGKLSVQGEVSTFTGKLSVEFVKGYYDNPKVCALFIMKGTADDVPMLQPHPGLE
[1]
  glycan array binding signal (z-score): -0.075
[2]
  glycan array binding signal (z-score): -0.076
[3]
  glycan array binding signal (z-score): -0.075
[4]
  glycan array binding signal (z-score): -0.076
[5]
  glycan array binding signal (z-score): -0.072
[6]
  glycan array binding signal (z-score): -0.075
[7]
  glycan array binding signal (z-score): -0.073
Fuc(a1-6)GlcNAc
  glycan array binding signal (z-score): -0.073
[8]
  glycan array binding signal (z-score): -0.076
Gal(a1-4)Gal(b1-4)GlcNAc
  glycan array binding signal (z-score): -0.075
Gal(a1-4)Glc
  glycan array binding signal (z-score): -0.222
Gal(b1-3)GalNAc
  glycan array binding signal (z-score): -0.075
[9]
  glycan array binding signal (z-score): -0.075
[10]
  glycan array binding signal (z-score): -0.076
[11]
  glycan array binding signal (z-score): -0.076
[12]
  glycan array binding signal (z-score): -0.076
Gal(b1-3)GlcNAc
  glycan array binding signal (z-score): -0.076
[13]
  glycan array binding signal (z-score): -0.072
[14]
  glycan array binding signal (z-score): -0.075
[15]
  glycan array binding signal (z-score): -0.076
[16]
  glycan array binding signal (z-score): -0.076
[17]
  glycan array binding signal (z-score): -0.068
[18]
  glycan array binding signal (z-score): -0.076
[19]
  glycan array binding signal (z-score): -0.073
[20]
  glycan array binding signal (z-score): -0.075
[21]
  glycan array binding signal (z-score): -0.076
[22]
  glycan array binding signal (z-score): -0.076
[23]
  glycan array binding signal (z-score): -0.068
[24]
  glycan array binding signal (z-score): -0.076
[25]
  glycan array binding signal (z-score): -0.073
[26]
  glycan array binding signal (z-score): -0.074
[27]
  glycan array binding signal (z-score): -0.072
[28]
  glycan array binding signal (z-score): -0.076
Gal(b1-4)Glc
  glycan array binding signal (z-score): -0.122
Gal(b1-4)GlcNAc
  glycan array binding signal (z-score): -0.072
[29]
  glycan array binding signal (z-score): -0.076
[30]
  glycan array binding signal (z-score): -0.076
[31]
  glycan array binding signal (z-score): -0.076
[32]
  glycan array binding signal (z-score): -0.076
[33]
  glycan array binding signal (z-score): -0.075
[34]
  glycan array binding signal (z-score): -0.075
[35]
  glycan array binding signal (z-score): -0.074
[36]
  glycan array binding signal (z-score): -0.076
[37]
  glycan array binding signal (z-score): -0.076
[38]
  glycan array binding signal (z-score): -0.072
